Some of the results follow. Shown are side measurements of this screen, not its main read-out; they come without a call.
Tests used:
Experiment in all cases: Primary Screen for Target Class Profiling of Small Molecule Inhibitors of Methyltransferases
[1] = biological target: Glycine N-methyltransferase (Homo sapiens) (UniProt Q14749); details: purified enzyme, MTase-Glo SAH luminescence; measured here: GNMT inhibition; at 40 µM; stronger effect = lower value
Method in brief: (§1)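 Each enzyme was reacted with SAM and its substrate, with compounds tested once at 40 uM; SAH formed was read by MTase-Glo luminescence.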

[2] = biological target: Guanidinoacetate N-methyltransferase (Homo sapiens) (UniProt Q14353); details: purified enzyme, MTase-Glo SAH luminescence; measured here: GAMT inhibition; at 40 µM; stronger effect = lower value
Method in brief: as §1

[3] = biological target: Histamine N-methyltransferase (Homo sapiens) (UniProt P50135); details: purified enzyme, MTase-Glo SAH luminescence; measured here: HNMT inhibition; at 40 µM; stronger effect = lower value
Method in brief: as §1

[4] = biological target: Nicotinamide N-methyltransferase (Homo sapiens) (UniProt P40261); details: purified enzyme, MTase-Glo SAH luminescence; measured here: NNMT inhibition; at 40 µM; stronger effect = lower value
Method in brief: as §1

[5] = biological target: Phenylethanolamine N-methyltransferase (Homo sapiens) (UniProt P11086); details: purified enzyme, MTase-Glo SAH luminescence; measured here: PNMT inhibition; at 40 µM; stronger effect = lower value
Method in brief: as §1
% is set by controls: 0 for no effect and ±100 for the full control effect.

Row | Structure (SMILES) | activity change, negative = inhibition [1] | activity change, negative = inhibition [2] | activity change, negative = inhibition [3] | activity change, negative = inhibition [4] | activity change, negative = inhibition [5]
1 | CC1(C)C(=O)N(CCN2CCC(C(=O)c3ccc(F)cc3)CC2)c2ccccc21 | 3.62% | 15.2% | 10.8% | -8.44% | 3.55%
2 | O=C1COC[C@H]([C@H](O)c2ccc(NC(=O)C3CCCC3)cc2)N1 | -4.3% | -7.14% | -1.44% | -2.39% | -4.18%
3 | CC1(c2noc(C3CC3)n2)CCN(C(=O)CCc2nc3ccc(Cl)cc3[nH]2)CC1 | -4.97% | -6.62% | -0.675% | -19.3% | -11.1%
4 | COC(=O)c1cc2n(n1)CC(C)(C(=O)NC1CCCCC1)N(c1cc(OC)cc(OC)c1)C2=O (stereo not given) | 6.32% | 0% | 9.9% | 10.2% | 6.36%
5 | O=C(c1ccccc1)c1c(O)cc(O)cc1O[C@@H]1O[C@H](CO)[C@@H](O)[C@H](O)[C@H]1O | 0% | -10.3% | 3.33% | -17.6% | -3.21%
6 | CCn1nc(CC(C)C)cc1C(=O)N1CCN(S(=O)(=O)CC)CC1 | -3.84% | -9.32% | -2.27% | -9.59% | -9.13%
7 | COc1ccccc1C(=O)N1CC(Oc2ccc(-c3noc(-c4ccncc4)n3)cc2)C1 | -15.1% | -1.86% | -2.62% | -17% | -8.65%
8 | CCOc1ccc(C(=O)N2CCCC3(C2)NC(=O)N(Cc2cc(C)ccc2C)C3=O)cc1 (stereo not given) | -2.82% | 0.342% | -0.189% | -6.54% | 2.71%
9 | CCc1ccc(S(=O)(=O)N2CCC(C3CCN(C(C)=O)CC3)C2)cc1 (stereo not given) | -1.25% | 1.51% | 14.5% | 3.08% | 9.75%
10 | CC(C)CNC(=O)N1CCC(Nc2cccnc2)C1 (stereo not given) | -3.62% | -1.66% | -0.931% | -5.21% | -3.58%
11 | CCOC(=O)c1cc2n(n1)CC(C)(C(=O)NCc1ccccc1OC)N(c1ccc3c(c1)OCO3)C2=O (stereo not given) | 7.05% | 0% | 13.7% | 13.6% | 6.7%
12 | Cc1ccc(C(C(=O)NCc2ccc(O)cc2)N(C)C)cc1 (stereo not given) | -0.773% | -1.76% | -1.61% | -0.728% | -0.611%
13 | Cc1ccc(Nc2ccn3c(=O)n(CC(=O)Nc4cc(F)ccc4C)nc3n2)cc1 | -1.91% | 3.91% | -11.3% | -10% | -5.72%
14 | Cc1cc2c(cc3n2CC(C)(C(=O)NC2CCCCC2)N(Cc2ccccc2F)C3=O)o1 (stereo not given) | 2.67% | 0% | 6.17% | -3.46% | -0.676%
15 | O=C(Cn1ccc2cc(S(=O)(=O)N3CCCC3)ccc21)NCc1cccc(Cl)c1 | -3.85% | 2.42% | -4.69% | -13.9% | -7.51%
16 | O=C(NC1C[C@H]2CC[C@@H](C1)N2S(=O)(=O)c1cccs1)c1ccncc1 (stereo not given in full) | -7.59% | 1.94% | -1.98% | -5.45% | -1.93%
17 | CCCOc1ccc(CN2C(=O)c3cc4sccc4n3CC2(C)C(=O)NC2CCCC2)cc1 (stereo not given) | -4.22% | 2.98% | 1.44% | -1.92% | -3.44%
18 | O=C(NCCc1ccccc1)c1ccc2c(=O)nc3c(-c4cccc(F)c4)n[nH]n3c2c1 | 2.72% | 3.89% | 3.08% | 2.23% | -1.78%
19 | CCCC1c2ccc(C)n2CCN1C(=O)Nc1ccc(C)cc1C (stereo not given) | -1.08% | 2.56% | -1.38% | -1.76% | -2.35%
20 | COc1ccc2c(c1)CC(NS(=O)(=O)c1cc(Cl)ccc1OC)CO2 (stereo not given) | -4.12% | 2.1% | 6.84% | -0.024% | 2.77%
21 | CC(C)NC(=O)CCc1cc2n(n1)CCN(C(=O)[C@H]1CCCO1)C2 | 0.426% | -0.432% | -0.116% | -0.069% | 0.194%
22 | C[C@H](CCC(=O)O)[C@H]1CC[C@H]2[C@@H]3C[C@H](O)[C@@H]4C[C@H](O)CC[C@]4(C)[C@H]3CC[C@]12C | -10.3% | -8.95% | 7.33% | -24% | -1.48%
23 | COc1ccccc1CNC(=O)C1(C)Cn2c(cc3ccccc32)C(=O)N1C1CCN(Cc2ccccc2)CC1 (stereo not given) | -2.53% | 3% | -3.7% | 0.382% | -1.71%
24 | O=C(CCc1nnc2n(Cc3ccc(Cl)cc3)c(=O)c3ccccc3n12)NCc1cccnc1 | -4.07% | 2.85% | 2.68% | 7.5% | -1.61%
25 | CCCn1c(=O)c2ccccc2n2c(SCc3ccc(F)cc3Cl)nnc12 | -14.3% | 0% | -7.9% | -15.9% | 2.67%
26 | COC(=O)c1ccc([C@H]2Nc3ccc(S(=O)(=O)Nc4cccc(C)c4)cc3[C@H]3C=CC[C@H]32)cc1 | -12.6% | 0% | -17.7% | -14.8% | -17.4%
27 | O=C1CN(Cc2ccc(-c3ccccc3)cc2)CCN1c1ccc(Cl)nn1 | -9.04% | -7.09% | -2.67% | -8.6% | -7.99%
28 | Cc1cccc(N2C(=O)c3cc4ccccc4n3CC2(C)C(=O)NCCC(C)C)c1C (stereo not given) | 3.38% | 2.39% | 5.4% | 5.24% | -0.233%
29 | Cc1cc(N2CCC3(CCCN(C)C3=O)C2)c2ccccc2n1 (stereo not given) | -6.3% | -9.19% | -43.6% | -16.8% | -11.8%
30 | COc1ccc(CCN2C(=O)c3cc4sccc4n3CC2(C)C(=O)NC2CCCCC2)cc1OC (stereo not given) | -0.874% | 0% | 5.37% | -15% | 2.29%

— PubChem BioAssay AID1745853 (National Center for Advancing Translational Sciences (NCATS), 2022)
